Test results from the supplement of paper PMC6531468.
Some of the results follow. These are enrichments in a pooled selection; single values are uncertain. Scores sum up all selected molecules that hold the word; the word was not tested alone.

These sequences were tested on IMP3 RRM1-2 (assay: 6-mer SELEX enrichment z-score vs GST control; IMP3 is the RNA-binding protein IGF2BP3; higher = more enriched by binding). Details: construct: RRM1-2 (1-163); SELEX round: R2.
Method: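 SELEX-seq with GST-tagged IMP3 RRM1-2 (Met1-Asn163) and an N40 RNA pool, round 2. 6-mer enrichment z-score normalised to GST SELEX. RNA written as DNA (T = U).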

Chain of IMP3 RRM1-2 (chain, as listed by the source): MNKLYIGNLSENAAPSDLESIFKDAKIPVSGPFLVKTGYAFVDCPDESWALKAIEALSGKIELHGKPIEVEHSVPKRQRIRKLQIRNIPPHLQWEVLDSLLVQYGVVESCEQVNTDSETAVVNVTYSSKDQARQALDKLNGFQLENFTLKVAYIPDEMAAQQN

Row | Sequence | 6-mer SELEX enrichment z-score
1 | CACGTC | 0.429
2 | GCGAGA | -0.638
3 | TTACAG | 0.258
4 | CAGTAC | 0.514
5 | TCTAAT | 0.1
6 | CGTTAA | -0.305
7 | TTCTGG | 0.413
8 | CATGGA | 0.21
9 | CCGCTA | -0.177
10 | TTGATC | 0.172
11 | AAGCCC | -1.3
12 | CGGGAG | -0.517
13 | CCATTG | 0.165
14 | ATCTTT | 0.425
15 | ACTCCT | -0.101
16 | ATTGTA | -0.078
17 | CGTTAG | 0.056
18 | CGGCTC | 0.515
19 | CGTGAG | -0.271
20 | TGAGAC | -0.774

Row | Sequence | 6-mer SELEX enrichment z-score
21 | AAAGGC | -0.719
22 | GTGGAC | -0.408
23 | AGTAGC | 0.132
24 | GCAGGA | 0.155
25 | TTACGC | 0.125
26 | CAATGC | 0.206
27 | AACTTT | -0.23
28 | ACGGGA | -0.802
29 | CCCAGT | -0.42
30 | TAGAAC | -0.632
31 | CTTAAG | -0.023
32 | AGTCGA | -0.201
33 | ATAAAC | -0.723
34 | ACGAAC | -1.08
35 | ATTTCC | -0.039
36 | GGTCAA | 0.024
37 | TTACTT | 0.291
38 | TCCTGT | 0.148
39 | AAAGAC | -2.08

Each sequence was assayed against IMP3 full-length (UniProt O00425) in the same assay as above. Details: construct: FL IMP3 (1-579); SELEX round: R4.
Method: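 SELEX-seq with GST-tagged full-length IMP3 and an N40 RNA pool, round 4. Each 6-mer is scored as an enrichment z-score of sequence tags containing it, normalised to the matching GST SELEX round. RNA written as DNA (T = U).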

Chain of UniProt O00425 (O00425 whole entry): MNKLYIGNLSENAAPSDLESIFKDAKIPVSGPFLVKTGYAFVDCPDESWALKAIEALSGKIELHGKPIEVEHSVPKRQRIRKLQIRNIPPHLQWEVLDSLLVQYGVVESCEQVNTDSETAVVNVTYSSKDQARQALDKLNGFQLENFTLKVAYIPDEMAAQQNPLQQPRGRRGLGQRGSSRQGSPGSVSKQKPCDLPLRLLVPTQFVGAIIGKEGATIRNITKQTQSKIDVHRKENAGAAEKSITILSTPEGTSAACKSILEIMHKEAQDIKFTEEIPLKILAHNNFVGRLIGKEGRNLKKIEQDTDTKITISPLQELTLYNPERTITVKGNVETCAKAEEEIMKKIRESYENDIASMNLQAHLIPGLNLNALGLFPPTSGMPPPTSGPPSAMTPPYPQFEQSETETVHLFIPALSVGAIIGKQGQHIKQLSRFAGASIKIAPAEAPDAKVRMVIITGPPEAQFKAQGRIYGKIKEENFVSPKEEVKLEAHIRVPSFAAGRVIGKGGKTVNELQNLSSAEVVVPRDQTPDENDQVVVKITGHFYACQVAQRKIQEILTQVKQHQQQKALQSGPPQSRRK

Row | Sequence | 6-mer SELEX enrichment z-score
40 | CACGTC | 0.649
41 | GCGAGA | -0.211
42 | TTACAG | 0.598
43 | CAGTAC | 0.823
44 | TCTAAT | -0.056
45 | CGTTAA | -0.578
46 | TTCTGG | 0.098
47 | CATGGA | 0.608
48 | CCGCTA | -0.113
49 | TTGATC | -0.058
50 | AAGCCC | -1.66
51 | CGGGAG | 0.421
52 | CCATTG | 0.148
53 | ATCTTT | 0.387
54 | ACTCCT | -0.564
55 | ATTGTA | -0.022
56 | CGTTAG | -0.196
57 | CGGCTC | 0.947
58 | CGTGAG | -0.308
59 | TGAGAC | -0.902

Row | Sequence | 6-mer SELEX enrichment z-score
60 | AAAGGC | -0.043
61 | GTGGAC | -0.086
62 | AGTAGC | -0.166
63 | GCAGGA | 0.931
64 | TTACGC | 0.036
65 | CAATGC | 0.232
66 | AACTTT | -0.337
67 | ACGGGA | 0.059
68 | CCCAGT | -0.301
69 | TAGAAC | -0.55
70 | CTTAAG | -0.441
71 | AGTCGA | 0.355
72 | ATAAAC | -0.245
73 | ACGAAC | -1.09
74 | ATTTCC | -0.059
75 | GGTCAA | 0.303
76 | TTACTT | 0.159
77 | TCCTGT | -0.153
78 | AAAGAC | -1.85

Each sequence was assayed on IMP3 KH1-2 in the same assay as above. Details: construct: KH1-2 (164-376); SELEX round: R4.
Method: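 SELEX-seq with GST-tagged IMP3 KH1-2 (Pro164-Phe376) and an N40 RNA pool, round 4 (stringent 300/600 mM KCl washes). 6-mer z-score of sequence-tag enrichment normalised to the corresponding GST SELEX round; RNA k-mers written as DNA (T for U).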

Chain of IMP3 KH1-2 (chain, as listed by the source): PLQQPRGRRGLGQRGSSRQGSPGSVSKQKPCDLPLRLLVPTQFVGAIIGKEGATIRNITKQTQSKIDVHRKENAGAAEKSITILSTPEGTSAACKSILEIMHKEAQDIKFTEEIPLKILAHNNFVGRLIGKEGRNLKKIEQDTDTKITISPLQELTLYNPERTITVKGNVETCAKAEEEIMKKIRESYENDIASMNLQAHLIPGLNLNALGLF

Row | Sequence | 6-mer SELEX enrichment z-score
79 | CACGTC | -0.542
80 | GCGAGA | -0.669
81 | TTACAG | 1.02
82 | CAGTAC | 0.098
83 | TCTAAT | 0.427
84 | CGTTAA | -0.504
85 | TTCTGG | 0.11
86 | CATGGA | 0.346
87 | CCGCTA | 0.439
88 | TTGATC | 0.033
89 | AAGCCC | -1.25
90 | CGGGAG | 0.345
91 | CCATTG | 0.058
92 | ATCTTT | 0.507
93 | ACTCCT | -0.113
94 | ATTGTA | 0.379
95 | CGTTAG | -0.328
96 | CGGCTC | 0.174
97 | CGTGAG | -0.596
98 | TGAGAC | -0.784

Row | Sequence | 6-mer SELEX enrichment z-score
99 | AAAGGC | -0.346
100 | GTGGAC | -0.284
101 | AGTAGC | -0.497
102 | GCAGGA | 0.765
103 | TTACGC | 0.38
104 | CAATGC | -0.054
105 | AACTTT | 0.691
106 | ACGGGA | 0.155
107 | CCCAGT | -0.458
108 | TAGAAC | -0.125
109 | CTTAAG | -0.291
110 | AGTCGA | 0.127
111 | ATAAAC | 1.6
112 | ACGAAC | -1.08
113 | ATTTCC | 1.05
114 | GGTCAA | -0.133
115 | TTACTT | 0.773
116 | TCCTGT | 0.129
117 | AAAGAC | -0.872
